Assay results published in the RNAGym collection of RNA variant scans (doi:10.7554/elife.90254).
Read counts are not given, so values of variants with three or more changes are uncertain.

B1: LINE1-mini (parent)
chain: GGCAGAGCUCAACACAGCGUGGCAAAGUGGCUGUGGCUAGACUGCC

Variants of: B1
Experiment: self-cleavage, relative activity (ratio to wild type); higher = more cleavage; in vitro, sequencing; the parent is a self-cleaving ribozyme

Which self-cleavage does the source give for GGCAGAGCUCAACACAGCGUGGUAAAGGGGCUGUGCCUAGACUGCC here?
The self-cleavage was 0.02.

For GGCAGAGCUCACCACAGCGUGGCAAAGUGGCUCUGGCCAGAAUGCG, which self-cleavage is on record?
Its self-cleavage is 0.01.

Which self-cleavage does the source give for CGCAGAUCUCAACACAGCGUGGCAAAGUGGCUAGGGCUAGACUGCC here?
The self-cleavage was 0.11.

With GGCAGAGCUCAACACAGCGUGGCAAAGUGGCUGUCCCAAAACUGCC as the variant, how does the self-cleavage read?
Its self-cleavage is 0.02.

With GGCAGAGCUCAACUCAACGUGGCAAAGUGGCUGUGGCUAGACUGCU as the variant, how does the self-cleavage read?
Its self-cleavage is 0.16.

With GGCAGAGCUCAACACAGCGACCCAAAGUGGCUGUGGCAAGACUGAC as the variant, how does the self-cleavage read?
Its self-cleavage is 0.01.

With GGCAGAGGUCAGCACAACGUGGCAGUGCGGCUUUGGUUAGACUGCC as the variant, how does the self-cleavage read?
Its self-cleavage is 0.01.

With GGCAGAGCGCAACACAGCGGGGCAAAGUGGUUGUGGCUAGACUGCC as the variant, how does the self-cleavage read?
The self-cleavage was 0.02.

Which self-cleavage does the source give for CGCAGAGCUCAACACAGCAGGGCAAAGUGGCUGUGGCUAGGCUGCC here?
Its self-cleavage is 0.04.

With GGCAGAGCUAAACACAGCGUGGAAAAGUCGGUGUGGCUAGACUGCC as the variant, how does the self-cleavage read?
The self-cleavage was 0.01.

With GGCAGAGCUUGACACAGCGUGGUAAAGUGGCUGUGGCUAGACUGCA as the variant, how does the self-cleavage read?
Its self-cleavage is 0.01.

With GGCAGAGCUCAUCAAAGCGUGGCAAAGUGGCUGUGGCCAGACUGCC as the variant, how does the self-cleavage read?
Its self-cleavage is 0.11.

With GGCAGGGCUCAACACAGCAUGGCAAACUGGCGGUGCCAAGACUGCC as the variant, how does the self-cleavage read?
Its self-cleavage is 0.01.

Which self-cleavage does the source give for GGUAGAGCUCAACACAGCGUGGGAAUGUGGCUGUGGCUAGACUGCC here?
The self-cleavage was 0.22.

Which self-cleavage does the source give for GGCUGAGCUCAACACACCGUGCCAAAGUGGCUGUGGCUAGACUGCC here?
The self-cleavage was 0.05.

Which self-cleavage does the source give for GACAGAGCUCAACACAGCGUGGCAAAGUGGGUGUGGCUAGCCUGCC here?
The self-cleavage was 0.17.

For GGCAGAGCUCAACACAGCGUGGCAAAGUGCCUGUGGCUAGACUGGA, which self-cleavage is on record?
The self-cleavage was 0.06.

For GGCAGAGCUCAACACAGCGUGUCAAAAUGGCUGUGGCUAGACUUCC, which self-cleavage is on record?
Its self-cleavage is 0.09.

Which self-cleavage does the source give for GGCAGUGCUCAACACAGCGUGGCAAAGUGCCUGUUGCUAGACUGCC here?
Its self-cleavage is 0.09.

With GGCAGCGCUCAACACAGCGUGGCAAGGUGUCUGUGGCUAGACUGCC as the variant, how does the self-cleavage read?
The self-cleavage was 1.85.

For GGCAGAUCUCGACACAGCGUGGCAAAGUGGCUGUGGCCAGACUGCC, which self-cleavage is on record?
Its self-cleavage is 0.02.

Which self-cleavage does the source give for GGCAGAGCUCAACAGAGCGUGCCAAAGUGGCUGGGACUAGACUGCC here?
Its self-cleavage is 0.01.

With GGCAGAGCUCAGCACAGCGUGGCACAGUGGCUGUGGCUAGUCUGCC as the variant, how does the self-cleavage read?
The self-cleavage was 0.01.

For GGCAGAGCUCAACACAGCGGGGCAAAUUGGCUUUGGCUAGACUGCC, which self-cleavage is on record?
Its self-cleavage is 0.06.

For GGCAGAGCUCAAUACAGCGUGACAAAGUGGCUGUGGCUAGGCUGAC, which self-cleavage is on record?
The self-cleavage was 0.13.

With GCCAGAGCUCAAGACAGCGCGGCAAAGUGGCUGUGGCUAGACUGCC as the variant, how does the self-cleavage read?
Its self-cleavage is 0.24.

Which self-cleavage does the source give for GGCAGAACUCACCACAGCGUGGCUAAGUGGCUGUGGCUAGACUGCC here?
The self-cleavage was 0.04.

For GGCAGAGCUCAACACAUCGUGGCAAAGGGGCUGUGUCUAGACUGCC, which self-cleavage is on record?
Its self-cleavage is 0.01.

Which self-cleavage does the source give for GCCAGGGAUCAACACAGCGUGGAAAAGUGGCUGUGGCUAGACGACC here?
Its self-cleavage is 0.01.

With GGCAAAGCUCGACACAGCGUGGCAAAGUGGCUGUUGCUUGACUGCC as the variant, how does the self-cleavage read?
The self-cleavage was 0.01.

With GGCAGAGCUCAACACAGCGUGGCAAUGUGGCUGUGUCUAGACCGCC as the variant, how does the self-cleavage read?
The self-cleavage was 0.05.

With GGCAGAGCUGAACACAGCGUGGCAAAGUGGCUAUGGCUAGACUACC as the variant, how does the self-cleavage read?
Its self-cleavage is 0.01.

For GGCAGAGCUCAACACAGCGUGGAAAAGUGGCUAUGGCUAGAGUGCG, which self-cleavage is on record?
The self-cleavage was 0.03.

For GGCAGAGCUCCACACAGCGUGACAAAGUAGCUAUGGCUAGACCGCC, which self-cleavage is on record?
The self-cleavage was 0.

Which self-cleavage does the source give for GGCAGAGCUCAACACAGCAUGGCAAAAUGGCUGUAGCUAGACUGCC here?
The self-cleavage was 0.14.

For GACAGAGCUCAACACAAUGUGGCCAAGUGGCUGUGGCUAGUCUGCC, which self-cleavage is on record?
Its self-cleavage is 0.09.

For GGCAGAGCUCAACAGAGCGUAGCAAAGUGGCUGUGGAUAUACUGCC, which self-cleavage is on record?
Its self-cleavage is 0.04.

With GGCAGAGCUCAACACCGCGUGGCUAAGUGGCAGUGGCUAGACUGCC as the variant, how does the self-cleavage read?
Its self-cleavage is 0.06.

For GACAGAGAUCAACACAGCGUGGCAAAGUGGCUGCUGCUAGACUGCC, which self-cleavage is on record?
Its self-cleavage is 0.71.

Which self-cleavage does the source give for GGCAGAGCUCAAAACAGCGUGGCAAAGUGUCUAUGGCUAGACUGCC here?
The self-cleavage was 0.04.

For GGCGGAGCUCAACACAUCGUGGCUAAGUGGCUGUGGCUAGACUGCC, which self-cleavage is on record?
The self-cleavage was 0.12.

With GGCAGAGCUCAACACAGCGUGGCAAAGUGGCAGUGGCUAGACUCCA as the variant, how does the self-cleavage read?
Its self-cleavage is 0.

For GGCAGAGCUCAAAACAGCGGUGCAAAGUGGCUGUGGCUGGACUGCC, which self-cleavage is on record?
Its self-cleavage is 0.04.

Which self-cleavage does the source give for GGCAGAGCUGAAAACAGUGUGGCAAAAUGGCUGUGGCUAGACUGCC here?
The self-cleavage was 0.01.

Which self-cleavage does the source give for GGCAAAGCGCAAGACAGCGUGGCCAAGUGGCUGUGGAUAUUCUGCC here?
The self-cleavage was 0.08.

For GGCAGAACUCACCACAGUGUGGCAAAUUGGCAGUGGCUAGACUGCC, which self-cleavage is on record?
Its self-cleavage is 0.02.

With GGGAGAUCUAAACACAGCGUGGCAUACUGGCUGUGGCUAGACUUCC as the variant, how does the self-cleavage read?
Its self-cleavage is 0.01.

For AGCAGAGCUCAACACAGCGUGGCAAAGUGGCUGUGGCUAGAAUUCC, which self-cleavage is on record?
The self-cleavage was 0.1.

Which self-cleavage does the source give for GGCAGAGCUCAACACAGCGUUGCAAAGUGGUUGUGGCUGGACUUCC here?
Its self-cleavage is 0.03.

For GGAACAGCUCAACACAGCGUGGCAAAGUGGCUUUGGCUCGACUGCC, which self-cleavage is on record?
Its self-cleavage is 0.06.

Which self-cleavage does the source give for GGCAGAGCUCAAAACAGCGUGGAAAAGUGGCUGUGGAUAGAUUGCC here?
The self-cleavage was 0.27.

Which self-cleavage does the source give for GGCAGAGCCCAACACCGCAUGGCAAAGUGGCUGUGGCUAGACUGCC here?
Its self-cleavage is 0.01.

With GGCAGAACUCAACACAGCGUGGCAUAGUGCCUGUAGCUAGACUGCC as the variant, how does the self-cleavage read?
The self-cleavage was 0.08.

With GGAAGAGCUCUAUACAGCGUUGCAAAGUGGUUGUGGCUAGACUUCC as the variant, how does the self-cleavage read?
Its self-cleavage is 0.03.

For CGCAGAGCUUAACACAGCGUGACGAAGUGGCUGUGGCUAGACUGCC, which self-cleavage is on record?
Its self-cleavage is 0.04.

With GGCAGAGCUCAUCACAGCGUGGCAAAGUGGCUGUCCCUAGACUGCC as the variant, how does the self-cleavage read?
Its self-cleavage is 0.12.
